Target: L1 (DV1-GV4) (human)
Test: DELFIA affinity ranking, signal with 100 nM biotinylated L1

Chain of L1 (DV1-GV4) (human) (chain, as listed by the source, chain 1 of 2): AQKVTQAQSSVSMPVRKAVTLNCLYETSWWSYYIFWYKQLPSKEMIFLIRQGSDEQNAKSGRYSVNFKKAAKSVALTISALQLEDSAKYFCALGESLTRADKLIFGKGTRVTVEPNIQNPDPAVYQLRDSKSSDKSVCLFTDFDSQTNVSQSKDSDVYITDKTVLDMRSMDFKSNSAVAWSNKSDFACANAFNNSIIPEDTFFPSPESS
Chain of L1 (DV1-GV4) (human) (chain, as listed by the source, chain 2 of 2): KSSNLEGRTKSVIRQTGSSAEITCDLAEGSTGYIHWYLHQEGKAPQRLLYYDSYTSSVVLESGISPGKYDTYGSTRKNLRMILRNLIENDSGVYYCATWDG

B1: 1245_P01_G06 scFv (scFv)
scFv: QVQLVESGGGLVKPGGSLRLSCAASGFTFSDYYMSWIRQAPGKGLEWVSYISSSGSTIYYADSVKGRFTISRDNAKNSLYLQMNSLRAEDTAVYYCARHSWNDAFDVWGQGTLVTVSSGGGGSGGGGSGGGAS[about 100 residues omitted here]
Question: For B1, which 100 nM L1 is on record?
Answer: 22500
